# Results taken from the supplement of paper PMC3334620.
# The full ranking holds about 33,000 sequences; the median of “E-score (-0.5 to 0.5)” is about -0.016, and the highest 2% start at about 0.32. Some of the results follow.
# Molecular target: T1, Stp1 (UniProt B3LFK1)
# T1 sequence: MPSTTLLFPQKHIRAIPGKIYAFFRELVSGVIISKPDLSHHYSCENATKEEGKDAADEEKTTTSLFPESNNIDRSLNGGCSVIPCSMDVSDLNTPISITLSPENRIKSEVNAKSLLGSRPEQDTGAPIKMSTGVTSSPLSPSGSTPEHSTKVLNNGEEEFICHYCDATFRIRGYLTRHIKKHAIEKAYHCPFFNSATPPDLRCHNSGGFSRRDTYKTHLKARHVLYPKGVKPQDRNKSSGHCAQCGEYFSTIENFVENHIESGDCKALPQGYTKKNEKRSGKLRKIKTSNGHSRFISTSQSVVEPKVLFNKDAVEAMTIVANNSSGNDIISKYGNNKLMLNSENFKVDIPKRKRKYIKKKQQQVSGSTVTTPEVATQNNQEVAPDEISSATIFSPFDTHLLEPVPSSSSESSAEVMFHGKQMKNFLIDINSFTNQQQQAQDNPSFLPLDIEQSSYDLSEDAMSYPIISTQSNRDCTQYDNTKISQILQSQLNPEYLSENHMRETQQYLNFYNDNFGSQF
# Test: PBM E-score (8-mer binding enrichment) (E-score (-0.5 to 0.5)); higher = stronger / more preferred TF binding; most listed sequences are background and not binding sites
# Conditions: protein concentration: 200 nM; construct: GST-full length
# Procedure, shortened: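 GST-tagged yeast TFs (full-length or DNA-binding domain) were made by PURExpress in vitro transcription/translation and applied at about 100-200 nM to universal all-10-mer Agilent arrays. The arrays were made double-stranded by primer extension, on fresh or once-stripped slides. Bound protein was detected with fluorescent anti-GST, and scans were normalised with masliner. Each ungapped eight-base word, pooled with its reverse complement, received an E-score (modified Wilcoxon-Mann-Whitney statistic) from the Universal PBM Analysis Suite.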
row,Sequence,PBM E-score
1,TAAGATTA,0.0404
2,AATGACAC,-0.105
3,CCTAGCAC,-0.161
4,AGGTCACG,-0.175
5,GGTAGGAC,-0.258
6,ATAGCGGC,0.217
7,ATATTAGC,0.131
8,AATGGCAA,0.206
9,AGACGCTA,-0.158
10,CCCGGAAG,-0.139
11,CCCGCCTC,-0.0165
12,CCGGACAG,-0.0788
13,CATAGAGA,-0.033
14,CAATTACA,0.13
15,ACCACCGC,-0.254
16,TAGCAAGA,-0.0435
17,GCTACTAC,0.0099
18,ATTTGGAC,0.0361
19,CGGTCATA,-0.0538
20,AAGCACGT,0.0443
21,TACAATGA,-0.0864
22,GGTGAGGA,0.0236
23,CTAAATAA,0.221
24,CCGCGACA,0.17
25,ATTACCCC,-0.206

row,Sequence,PBM E-score
1,GCAATCAA,0.0929
2,AGCCCGGG,-0.25
3,GCGGGGTA,-0.147
4,AATCGCCC,0.0762
5,AGGATCAT,-0.122
6,CTATTCCA,0.13
7,TCGGACGA,-0.0439
8,ACTAAAAT,0.0948
9,AGCAACTG,0.0945
10,CTGGACAC,-0.303
11,AACATTCT,0.215
12,AACTCGTG,0.057
13,AAACTGTT,0.129
14,CAGAAGAA,-0.0777
15,ATGCGGCG,0.485
16,AATCCAGA,0.124
17,GTCCTGAA,-0.0984
18,CGTCGCCA,0.154
19,CTGCCTAC,0.0708
20,AGTCCGGG,-0.199
21,ATCCAGGG,-0.185
22,GCTATTCA,-0.0683
23,GGACCCAA,-0.094
24,TAACCGTA,-0.119
25,GAGAGAAA,0.0555

row,Sequence,PBM E-score
1,CCCGCGCG,0.328
2,GGCCGGAC,-0.00323
3,CGGGTGAA,0.101
4,GCCAGCTA,-0.185
5,GACGGATC,-0.0791
6,AATACGTG,0.0963
7,AGTATCTC,0.142
8,AAAACATA,0.212
9,GACTTTGC,-0.0595
10,AAAACGTA,0.0508
11,CGTTCACC,-0.0967
12,CGTGAACG,-0.0914
13,CCATTCCC,-0.206
14,ACGCTATG,0.0213
15,CTAGGATA,-0.0856
16,GCTTTAAC,0.0688
17,ATAAATTG,0.226
18,ATTGATTG,0.178
19,AAAAATAT,0.247
20,GCGATCAC,0.0835
21,CAAGGATG,-0.138
22,AGACCAAC,-0.0615
23,AAGAGCTA,-0.142
24,CTTGGCGA,-0.124
25,ACTCGCCC,-0.18

row,Sequence,PBM E-score
1,CCAACCTC,-0.133
2,GGCTCAAA,0.266
3,TAAGCGAA,0.131
4,AATCTTGC,0.118
5,ACATTTGA,0.0715
6,ACGGCCGG,0.0865
7,CTAAAGTC,-0.267
8,TATAACCA,-0.0161
9,ACTATTAC,0.063
10,CCTGGAGC,-0.18
11,CATAGGCC,-0.225
12,GTTGCAAC,0.106
13,CTACATAA,-0.13
14,AATGCCGG,0.137
15,TAATTAGA,-0.0189
16,AAGAAACC,0.0172
17,ACACGTTC,-0.0175
18,TGACATCA,0.00273
19,AGCCATTA,0.0537
20,GTCAGCAA,0.0285
21,ACCATCGA,-0.11
22,ATGCTTGA,0.0103
23,AAAGACCC,-0.167
24,ATCAGCAA,-0.067
25,ATCACAAG,0.0279

row,Sequence,PBM E-score
1,ACTGGAGA,-0.15
2,ATGCGCGA,-0.0609
3,TCGATCCA,0.0077
4,GACGTGTA,-0.132
5,AACACGAA,0.116
6,AAGATGCG,0.0113
7,CTCCCGGA,-0.245
8,CTCTTTTC,-0.0026
9,CTGAGAAA,-0.0403
10,GGGTATCA,-0.0694
11,ATCCGATA,-0.0419
12,AAGTACAA,0.0248
13,CACGACAA,-0.015
14,CTCCCCTC,-0.3
15,AGGTTTAC,-0.199
16,AGAGGACT,-0.228
17,AGTAGTCA,-0.0191
18,CGGATCCA,0.052
19,GCTGAAAA,0.122
20,AACACCAC,-0.012
21,CTATGAAC,0.0764
22,GAAGGCTA,-0.0845
23,ACTCAGAA,0.0655
24,AGGTTAAT,-0.0149
25,CAGACCTG,-0.116

row,Sequence,PBM E-score
1,CTTATCTC,-0.0925
2,AACGAGGG,-0.0424
3,AAAGCAGT,-0.0168
4,GAGACAAC,-0.0599
5,CGGAATGC,0.0255
6,ACGTCACG,-0.0529
7,AATGGCCC,-0.12
8,AGCTTACC,-0.13
9,GAGGTGAC,0.0292
10,CCATCATA,-0.0792
11,GAGTGTCC,-0.0383
12,AATAACCT,-0.0883
13,AGGCATAC,0.0863
14,ACATTCAA,0.00945
15,GGTCGTAA,-0.109
16,ACTCTCTG,-0.177
17,ATTTGTTC,0.177
18,CGCACGCC,0.292
19,AGGATTAG,-0.0944
20,AAGGTGCG,-0.162
21,GCTGTACC,-0.139
22,CCGGGACA,-0.109
23,GTTACGGA,-0.124
24,AAGCTACC,-0.117
25,TACTCGCA,-0.0309

row,Sequence,PBM E-score
1,ACACTCAA,0.219
2,CGCACCGC,0.0985
3,ATCGAGGA,-0.017
4,ATGTATTA,0.0692
5,GACATCGA,-0.00828
6,GGCCCGAC,-0.192
7,AACTCTTA,0.0216
8,CGCTCACC,-0.0817
9,GCTATACC,-0.103
10,AGCACCTG,-0.0582
11,AAACAAGC,0.105
12,AACGGTCC,-0.0166
13,ACCTGCCC,-0.199
14,AATGCCAA,-0.037
15,ACAGATGC,-0.0392
16,AGTGACTA,-0.0544
17,AACAAACC,0.172
18,AACCGACT,-0.0233
19,CGACTGCA,-0.119
20,CATCTCCC,-0.182
21,CGTCCCAA,-0.021
22,CGCCGCGA,0.379
23,GTTAACTA,0.0936
24,CTCACCCC,0.0927
25,TCAGTAAA,0.191

row,Sequence,PBM E-score
1,CCTCATAC,-0.0134
2,GCAAAAAC,0.142
3,AGGCCATG,-0.0677
4,ACCTATAG,-0.248
5,CTCAAGAC,-0.0456
6,GTTGAAAA,0.131
7,AAGGCGAG,-0.158
8,AAAATTAC,0.104
9,CAGTTCAG,-0.0933
10,ATGGCCAC,-0.113
11,TAAGAGGA,0.0314
12,ATGAAAAT,0.199
13,CTGTAAGA,0.0896
14,CCGTCTAA,0.0555
15,TAACCTAA,0.0714
16,CTCACCAC,-0.0613
17,CTGAAGAA,-0.149
18,CAATCCAC,-0.128
19,TAAGCTGA,0.0192
20,ACCGTGTA,0.0338
21,AACCGGTA,-0.222
22,GTATGCAA,0.161
23,GAATTGGC,-0.0522
24,ATAAACAT,0.222
25,CCTTGGGC,-0.00209

row,Sequence,PBM E-score
1,AGCTTTAG,-0.049
2,GGGAGAGA,-0.449
3,CTCTAGAA,-0.0697
4,GTACATCA,0.125
5,TAAATTCA,-0.0181
6,CCACCAGA,0.0268
7,AGCTGCCT,-0.112
8,ATCGAATA,0.0852
9,TCATATAA,0.227
10,CGCCCTAC,0.253
11,AACAACTC,-0.053
12,GCGTGTAA,0.0838
13,CGACGTAC,-0.0502
14,CGTAGACG,0.0087
15,GTCGAAGA,-0.132
16,ACGGTCCG,-0.0103
17,GGGCACAA,0.202
18,GGCAAACA,0.194
19,CCAGATCC,-0.295
